# Results reported in US9869668B2, “PDGF as a biomarker for predicting resistance or effect of c-Met targeting drugs” (SAMSUNG ELECTRONICS CO., LTD., priority 2014, dated 2018).
# B1: huAbF46-H4-A1: affinity-matured humanized anti-c-Met antibody, L3-1 origin (antibody)
# heavy: EVQLVESGGGLVQPGGSLRLSCAASGFTFTDYYMSWVRQAPGKGLEWLGFIRNKANGYTTEYSASVKGRFTISRDNSKNTLYLQMNSLRAEDTAVYYCARDNWFAYWGQGTLVTVSSASTKGPSVFPLAPSSKSTSGGTAALGCLVKDYFPEPVTVSWNSGALTSGVHTFPAVLQSSGLYSLSSVVTVPSSSLGTQTYICNVNHKPSNTKVDKKVEPKSCDCH[human IgG1 Fc not given here]
# light: DIQMTQSPSSLSASVGDRVTITCKSSQSLLASGNQNNYLAWHQQKPGKAPKMLIIWASTRVSGVPSRFSGSGSGTDFTLTISSLQPEDFATYYCQQSYSRPYTFGQGTKVEIKRTVAAPSVFIFPPSDEQLKSGTASVVCLLNNFYPREAKVQWKVDNALQSGNSQESVTEQDSKDSTYSLSSTLTLSKADYEKHKVYACEVTHQGLSSPVTKSFNRGEC
# Experiments:
# Conditions in all cases: among the four affinity-matured antibodies
# c-Met [1] = target: T1, c-Met (Homo sapiens, UniProt P08581); experiment: Affinity for c-Met; type: binding
# c-Met [2] = target: T1, c-Met; experiment: c-Met degradation degree; type: cell-based
# Akt phosphorylation = experiment: Akt phosphorylation; type: cell-based
# T1 sequence (P08581 25-1390): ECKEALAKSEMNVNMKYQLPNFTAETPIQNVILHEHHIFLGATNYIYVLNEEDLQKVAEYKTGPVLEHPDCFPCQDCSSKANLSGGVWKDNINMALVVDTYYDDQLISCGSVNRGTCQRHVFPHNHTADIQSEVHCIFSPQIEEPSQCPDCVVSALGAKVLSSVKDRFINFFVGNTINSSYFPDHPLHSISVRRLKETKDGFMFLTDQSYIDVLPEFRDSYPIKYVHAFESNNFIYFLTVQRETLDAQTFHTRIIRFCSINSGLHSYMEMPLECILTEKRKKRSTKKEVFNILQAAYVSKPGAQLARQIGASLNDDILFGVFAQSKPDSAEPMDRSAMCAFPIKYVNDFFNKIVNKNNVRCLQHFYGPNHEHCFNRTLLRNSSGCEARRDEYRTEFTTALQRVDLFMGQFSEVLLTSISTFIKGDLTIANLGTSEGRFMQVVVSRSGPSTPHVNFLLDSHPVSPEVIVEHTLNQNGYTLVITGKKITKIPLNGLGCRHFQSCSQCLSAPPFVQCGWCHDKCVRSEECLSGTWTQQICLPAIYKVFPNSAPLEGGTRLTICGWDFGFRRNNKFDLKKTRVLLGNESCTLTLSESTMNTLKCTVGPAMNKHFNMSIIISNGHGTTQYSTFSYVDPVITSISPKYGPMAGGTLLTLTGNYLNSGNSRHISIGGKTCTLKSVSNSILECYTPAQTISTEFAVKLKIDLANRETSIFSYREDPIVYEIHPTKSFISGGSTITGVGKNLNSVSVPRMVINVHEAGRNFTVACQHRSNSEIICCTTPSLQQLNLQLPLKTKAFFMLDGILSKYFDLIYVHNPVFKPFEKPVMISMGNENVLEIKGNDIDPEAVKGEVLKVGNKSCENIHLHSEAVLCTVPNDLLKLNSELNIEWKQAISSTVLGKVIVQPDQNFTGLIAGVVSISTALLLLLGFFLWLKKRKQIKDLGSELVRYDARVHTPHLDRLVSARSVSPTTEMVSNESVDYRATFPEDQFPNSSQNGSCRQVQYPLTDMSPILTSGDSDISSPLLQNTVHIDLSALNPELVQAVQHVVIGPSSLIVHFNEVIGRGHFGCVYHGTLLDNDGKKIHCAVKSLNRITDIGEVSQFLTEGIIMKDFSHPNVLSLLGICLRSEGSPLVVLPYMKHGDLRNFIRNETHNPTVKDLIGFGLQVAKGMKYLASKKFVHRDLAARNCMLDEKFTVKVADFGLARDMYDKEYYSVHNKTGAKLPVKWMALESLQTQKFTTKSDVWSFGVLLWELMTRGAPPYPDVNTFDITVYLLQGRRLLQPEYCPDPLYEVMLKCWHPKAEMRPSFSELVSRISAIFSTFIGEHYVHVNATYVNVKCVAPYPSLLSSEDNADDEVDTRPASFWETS
molecule,measurement,setting,value
B1,affinity for c-Met,c-Met [1],highest
same,c-Met degradation degree,c-Met [2],lowest
same,Akt phosphorylation,Akt phosphorylation,lowest
